Experimental data: publication PMC7005700
Results are given in words; binding and its absence hold for the method and conditions named. Binding seen in cells or lysates may run through a third protein. Some binding calls cover weakened binding; strength is not graded here.

By UniProt entry, the sequences of proteins in these tests, tags left out. Where a name states a change or a piece, a line headed by the entry shows the natural chain unless it says otherwise. Chains listed by the source or under a name are the forms on record and can include a tag or linker.
UniProt P22415: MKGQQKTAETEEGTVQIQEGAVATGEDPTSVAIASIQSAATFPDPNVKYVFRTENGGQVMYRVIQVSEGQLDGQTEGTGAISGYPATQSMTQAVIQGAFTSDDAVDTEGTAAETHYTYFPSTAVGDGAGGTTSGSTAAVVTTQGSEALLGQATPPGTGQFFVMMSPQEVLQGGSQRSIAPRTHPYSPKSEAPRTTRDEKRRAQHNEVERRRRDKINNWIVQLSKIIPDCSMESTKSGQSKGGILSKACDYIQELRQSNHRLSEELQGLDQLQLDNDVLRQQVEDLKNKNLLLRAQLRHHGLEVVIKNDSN
UniProt Q61069: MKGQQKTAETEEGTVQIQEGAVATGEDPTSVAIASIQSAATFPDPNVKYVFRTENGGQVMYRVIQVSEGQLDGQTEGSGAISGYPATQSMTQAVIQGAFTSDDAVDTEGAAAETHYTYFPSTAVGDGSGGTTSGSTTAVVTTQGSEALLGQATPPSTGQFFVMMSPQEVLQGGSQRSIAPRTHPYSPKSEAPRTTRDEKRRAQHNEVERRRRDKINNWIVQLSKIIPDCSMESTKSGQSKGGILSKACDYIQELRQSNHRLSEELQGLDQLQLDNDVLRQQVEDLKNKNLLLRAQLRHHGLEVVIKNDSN
UniProt Q15652: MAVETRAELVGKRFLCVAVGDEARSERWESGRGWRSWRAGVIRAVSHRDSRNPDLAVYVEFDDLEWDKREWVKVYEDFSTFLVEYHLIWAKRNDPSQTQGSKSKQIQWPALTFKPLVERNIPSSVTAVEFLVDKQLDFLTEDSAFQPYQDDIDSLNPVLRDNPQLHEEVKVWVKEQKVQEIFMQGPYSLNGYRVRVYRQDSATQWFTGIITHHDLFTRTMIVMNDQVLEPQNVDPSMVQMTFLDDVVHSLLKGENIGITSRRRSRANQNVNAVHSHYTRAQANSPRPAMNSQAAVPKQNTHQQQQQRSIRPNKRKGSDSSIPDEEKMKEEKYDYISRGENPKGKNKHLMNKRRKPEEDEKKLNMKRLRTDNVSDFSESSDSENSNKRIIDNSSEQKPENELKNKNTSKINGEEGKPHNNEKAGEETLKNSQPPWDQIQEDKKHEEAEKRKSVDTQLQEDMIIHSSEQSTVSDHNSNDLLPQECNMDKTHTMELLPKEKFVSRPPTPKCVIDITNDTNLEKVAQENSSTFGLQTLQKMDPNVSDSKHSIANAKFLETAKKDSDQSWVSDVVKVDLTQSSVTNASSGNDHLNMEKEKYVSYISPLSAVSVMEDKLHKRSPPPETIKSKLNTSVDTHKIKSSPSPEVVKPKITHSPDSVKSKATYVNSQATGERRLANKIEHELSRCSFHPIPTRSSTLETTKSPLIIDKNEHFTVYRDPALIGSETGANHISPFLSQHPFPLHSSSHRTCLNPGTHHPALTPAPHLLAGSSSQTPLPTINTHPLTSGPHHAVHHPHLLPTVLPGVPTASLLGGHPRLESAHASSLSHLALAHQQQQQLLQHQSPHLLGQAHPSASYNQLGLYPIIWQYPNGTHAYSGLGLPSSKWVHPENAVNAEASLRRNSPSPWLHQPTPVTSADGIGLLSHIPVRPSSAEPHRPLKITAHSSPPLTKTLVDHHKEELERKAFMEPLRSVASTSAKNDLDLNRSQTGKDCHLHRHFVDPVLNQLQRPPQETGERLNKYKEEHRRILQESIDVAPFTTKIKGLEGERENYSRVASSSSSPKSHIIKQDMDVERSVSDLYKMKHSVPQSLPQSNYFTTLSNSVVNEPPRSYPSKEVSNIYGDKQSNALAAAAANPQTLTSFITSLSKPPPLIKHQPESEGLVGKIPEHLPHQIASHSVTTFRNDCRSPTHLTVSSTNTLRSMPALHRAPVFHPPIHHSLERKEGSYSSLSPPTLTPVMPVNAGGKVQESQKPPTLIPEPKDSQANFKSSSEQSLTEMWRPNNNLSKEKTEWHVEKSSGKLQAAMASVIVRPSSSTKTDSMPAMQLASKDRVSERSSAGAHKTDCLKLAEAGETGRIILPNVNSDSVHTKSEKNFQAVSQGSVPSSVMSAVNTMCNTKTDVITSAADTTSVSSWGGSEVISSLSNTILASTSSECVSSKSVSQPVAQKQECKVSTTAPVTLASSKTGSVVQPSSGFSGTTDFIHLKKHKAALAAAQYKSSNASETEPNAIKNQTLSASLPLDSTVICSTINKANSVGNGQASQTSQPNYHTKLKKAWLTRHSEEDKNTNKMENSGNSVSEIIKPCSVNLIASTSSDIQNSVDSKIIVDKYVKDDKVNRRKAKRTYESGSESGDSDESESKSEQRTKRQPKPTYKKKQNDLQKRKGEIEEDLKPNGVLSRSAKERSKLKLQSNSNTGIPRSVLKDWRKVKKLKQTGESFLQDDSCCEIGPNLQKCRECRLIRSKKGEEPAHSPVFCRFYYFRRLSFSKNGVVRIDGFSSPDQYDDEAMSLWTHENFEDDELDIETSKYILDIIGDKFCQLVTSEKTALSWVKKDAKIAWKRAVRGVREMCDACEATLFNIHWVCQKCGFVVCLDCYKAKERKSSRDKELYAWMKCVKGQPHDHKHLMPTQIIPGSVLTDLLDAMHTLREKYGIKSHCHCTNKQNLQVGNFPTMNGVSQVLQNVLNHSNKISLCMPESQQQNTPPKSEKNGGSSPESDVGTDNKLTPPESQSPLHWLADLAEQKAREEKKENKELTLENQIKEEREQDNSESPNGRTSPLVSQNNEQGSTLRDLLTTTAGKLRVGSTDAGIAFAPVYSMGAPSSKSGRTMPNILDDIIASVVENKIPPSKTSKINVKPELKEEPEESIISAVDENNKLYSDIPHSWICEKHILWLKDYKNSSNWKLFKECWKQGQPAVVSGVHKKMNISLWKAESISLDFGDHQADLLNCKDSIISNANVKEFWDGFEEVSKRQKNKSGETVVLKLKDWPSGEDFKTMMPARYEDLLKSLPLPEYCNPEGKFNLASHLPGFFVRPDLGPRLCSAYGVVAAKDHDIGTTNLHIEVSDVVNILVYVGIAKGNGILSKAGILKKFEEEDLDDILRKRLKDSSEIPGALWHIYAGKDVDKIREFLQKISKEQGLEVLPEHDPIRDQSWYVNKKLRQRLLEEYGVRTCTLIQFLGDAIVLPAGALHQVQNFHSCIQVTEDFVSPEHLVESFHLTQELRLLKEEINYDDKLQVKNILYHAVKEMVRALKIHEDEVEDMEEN
Jmjd1c, endogenous in mouse liver (Q69ZK6, form named): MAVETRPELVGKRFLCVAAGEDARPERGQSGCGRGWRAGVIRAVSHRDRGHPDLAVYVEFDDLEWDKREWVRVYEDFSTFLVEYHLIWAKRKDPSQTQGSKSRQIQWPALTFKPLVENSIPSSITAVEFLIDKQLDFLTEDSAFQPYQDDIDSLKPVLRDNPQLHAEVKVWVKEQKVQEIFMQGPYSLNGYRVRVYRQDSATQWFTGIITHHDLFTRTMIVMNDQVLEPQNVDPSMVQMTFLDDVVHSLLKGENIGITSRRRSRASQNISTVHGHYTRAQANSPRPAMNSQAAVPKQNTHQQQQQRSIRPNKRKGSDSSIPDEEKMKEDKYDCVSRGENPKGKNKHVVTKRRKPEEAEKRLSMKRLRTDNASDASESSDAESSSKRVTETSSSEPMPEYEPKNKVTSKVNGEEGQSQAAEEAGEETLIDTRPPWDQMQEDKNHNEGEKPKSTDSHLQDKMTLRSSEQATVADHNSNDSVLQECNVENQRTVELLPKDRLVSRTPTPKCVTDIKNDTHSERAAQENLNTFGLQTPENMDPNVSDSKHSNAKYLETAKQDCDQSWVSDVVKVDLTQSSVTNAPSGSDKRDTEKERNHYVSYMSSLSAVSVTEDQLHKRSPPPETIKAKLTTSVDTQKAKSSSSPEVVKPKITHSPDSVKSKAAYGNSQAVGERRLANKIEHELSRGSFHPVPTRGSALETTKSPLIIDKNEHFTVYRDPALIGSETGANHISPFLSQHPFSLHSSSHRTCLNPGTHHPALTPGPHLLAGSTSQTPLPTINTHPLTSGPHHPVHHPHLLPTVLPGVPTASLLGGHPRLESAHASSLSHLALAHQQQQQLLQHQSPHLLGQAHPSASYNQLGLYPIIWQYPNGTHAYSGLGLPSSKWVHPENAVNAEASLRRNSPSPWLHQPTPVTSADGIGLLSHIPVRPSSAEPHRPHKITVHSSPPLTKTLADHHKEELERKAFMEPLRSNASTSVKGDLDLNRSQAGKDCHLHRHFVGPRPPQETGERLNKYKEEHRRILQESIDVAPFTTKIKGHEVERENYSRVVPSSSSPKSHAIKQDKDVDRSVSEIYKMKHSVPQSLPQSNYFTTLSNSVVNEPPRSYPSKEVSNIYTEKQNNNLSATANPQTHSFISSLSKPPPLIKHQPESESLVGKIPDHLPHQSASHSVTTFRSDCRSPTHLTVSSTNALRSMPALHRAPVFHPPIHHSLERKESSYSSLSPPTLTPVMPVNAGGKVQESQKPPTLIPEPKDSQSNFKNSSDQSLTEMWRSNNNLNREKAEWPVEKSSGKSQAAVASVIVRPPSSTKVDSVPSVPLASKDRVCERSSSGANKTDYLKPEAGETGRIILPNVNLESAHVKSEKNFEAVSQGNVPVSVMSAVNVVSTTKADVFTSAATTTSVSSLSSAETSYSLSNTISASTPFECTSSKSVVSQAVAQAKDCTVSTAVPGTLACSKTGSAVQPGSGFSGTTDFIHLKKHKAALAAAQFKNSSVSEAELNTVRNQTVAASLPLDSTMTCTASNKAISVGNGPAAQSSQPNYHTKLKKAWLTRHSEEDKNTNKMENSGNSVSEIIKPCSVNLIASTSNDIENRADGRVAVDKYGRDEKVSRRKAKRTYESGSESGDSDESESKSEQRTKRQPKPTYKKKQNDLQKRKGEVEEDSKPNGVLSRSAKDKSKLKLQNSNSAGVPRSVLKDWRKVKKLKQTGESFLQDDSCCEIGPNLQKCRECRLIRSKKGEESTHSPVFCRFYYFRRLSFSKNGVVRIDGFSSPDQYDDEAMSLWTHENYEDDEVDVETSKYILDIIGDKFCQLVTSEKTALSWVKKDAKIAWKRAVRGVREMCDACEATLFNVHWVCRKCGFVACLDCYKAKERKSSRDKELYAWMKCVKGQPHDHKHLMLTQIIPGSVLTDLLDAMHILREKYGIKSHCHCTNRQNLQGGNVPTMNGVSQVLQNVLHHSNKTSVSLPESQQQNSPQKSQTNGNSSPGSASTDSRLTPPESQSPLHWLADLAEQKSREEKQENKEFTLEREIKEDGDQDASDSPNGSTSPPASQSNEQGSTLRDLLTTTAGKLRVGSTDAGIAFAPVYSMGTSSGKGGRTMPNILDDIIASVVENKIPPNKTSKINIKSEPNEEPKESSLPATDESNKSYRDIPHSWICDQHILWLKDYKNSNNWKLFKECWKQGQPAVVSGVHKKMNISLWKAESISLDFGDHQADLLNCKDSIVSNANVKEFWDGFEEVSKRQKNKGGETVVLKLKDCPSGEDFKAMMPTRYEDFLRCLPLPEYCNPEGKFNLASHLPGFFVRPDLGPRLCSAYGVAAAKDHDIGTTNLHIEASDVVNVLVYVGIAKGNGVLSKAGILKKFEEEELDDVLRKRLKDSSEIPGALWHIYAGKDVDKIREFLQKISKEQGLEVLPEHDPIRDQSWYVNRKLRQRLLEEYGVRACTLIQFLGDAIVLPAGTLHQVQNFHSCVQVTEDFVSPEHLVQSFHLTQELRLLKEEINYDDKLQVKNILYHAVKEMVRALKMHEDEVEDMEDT

Columns and labels:
[1] = target: HA-tagged USF-1 (UniProt P22415); experiment: co-IP; HEK293 cells co-transfected with Flag-JMJD1C and HA-USF-1; IP with HA antibody, immunoblot with Flag antibody
[2] = target: USF-1 overexpressed in 293FT cells (UniProt P22415); experiment: co-IP; co-IP of JMJD1C WT and T505 mutants with USF-1, immunoblot; cells and tags not told
[3] = target: Usf-1, endogenous in mouse liver (mouse (endogenous in liver)) (UniProt Q61069); experiment: co-IP; endogenous proteins, livers of fasted mice; IP of Jmjd1c and blot of Usf-1, and IP of Usf-1 and blot of Jmjd1c
[4] = target: Usf-1, endogenous in mouse liver (mouse (endogenous in liver)) (UniProt Q61069); experiment: co-IP; endogenous proteins, livers of fed (refed) mice; IP of Jmjd1c and blot of Usf-1, and IP of Usf-1 and blot of Jmjd1c
[5] = target: GST-USF-1 (UniProt P22415); experiment: pull-down; bacterially expressed GST-USF-1 fusion proteins on glutathione-agarose beads incubated with 35S-labeled in vitro transcribed and translated protein; SDS-PAGE, autoradiography; only the target purified

Q: “Flag-tagged JMJD1C (from UniProt Q15652 1-2540)” was tested. Which binding [1] did it give?
A: Its binding is “binds”.

Q: With “JMJD1C T505A mutant (from UniProt Q15652 1-2540)” as the substance, how does the binding [2] read?
A: The binding was “no binding”.

Q: For “JMJD1C T505D mutant (from UniProt Q15652 1-2540)”, which binding [2] is on record?
A: Its binding is “binds”.

Q: For “Jmjd1c, endogenous in mouse liver (from UniProt Q69ZK6 1-2531)”, which binding [3] is on record?
A: The binding was “no binding (condition: livers of fasted mice)”.

Q: And the binding [4]?
A: The binding was “binds”.

Q: With WT JMJD1C (from UniProt Q15652 1-2540) as the substance, how does the binding [2] read?
A: Its binding is “binds”.

Q: For “in vitro translated JMJD1C (from UniProt Q15652 1-2540)”, which binding [5] is on record?
A: Its binding is “binds”.
